Measurements published in PubChem BioAssay AID504832 (National Center for Advancing Translational Sciences (NCATS), 2011).
Where “and” joins values, the source holds several entries; their conditions need not be identical. Equal values may be shown once. About 18,000 (5.8%) of roughly 310,000 compounds were called active. Inconclusive results, whose numbers are uncertain, are shown with a selection of clear calls. The call rests on the fitted dose curve; in most records, active means well fitted inhibition curve with a large enough effect; inconclusive means small, poorly fitted or top-dose-only effect, or another doubt; inactive means no such curve, though single readings can be large or run the other way. No potency is given beside an inconclusive call; the fits are too rough.

experiment: Primary qHTS for delayed death inhibitors of the malarial parasite plastid, 48 hour incubation; details: P. falciparum luciferase growth in erythrocytes; series mostly up to 28.7 µM; activity change, negative = inhibition: at the top concentration
Outline: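 Luciferase-expressing P. falciparum in infected erythrocytes (2% hematocrit, 0.1% parasitemia final) in RPMI 1640/0.5% Albumax were exposed to compound for 48 hours at 37 C, 5% CO2; growth read as luminescence.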
On the % scale 0 is the no-effect control and ±100 the full control effect; potency means the concentration at half of the fitted maximal effect; tags describe the fitted curve by direction and shape.

SMILES | activity change, negative = inhibition | Potency
Cc1ccc(-c2noc(-c3ccccc3C(=O)N3CCN(C)CC3)n2)cc1 | inactive: 11.4% | –
O=C(/C=C/c1ccccc1)NC(=O)c1ccccc1O | – | active: 1.31 µM
OC1(c2ccccc2)C/C(=N\n2cnnc2)C=C1c1ccccc1 (stereo not given) | – | inconclusive [inhibitor, single point]
O=c1c2ccccc2nc(COc2ccccc2)n1/N=C/c1cn[nH]c1-c1ccccc1 | – | inconclusive [inhibitor, partial curve, poor fit]
O=C(O)c1cn(C2CC2)c2cc(N3CCN(S(=O)(=O)c4ccc5c(c4)OCCO5)CC3)c(F)cc2c1=O | – | inconclusive [inhibitor, partial curve]
CCOc1ccc2nc(NC3=NCN(Cc4ccco4)CN3)nc(C)c2c1 | – | inconclusive [inhibitor, single point]
CCOC(=O)CN1C(=O)N(c2ccccc2OC)S(=O)(=O)c2ccccc21 | inactive: 27.8% | –
O=C(CN1CCN(C2CCCCC2)CC1)NCCC1=CCCCC1 | inactive: 18% | –
O=[N+]([O-])c1ccc2c(c1)nc1n2CCN(C2CCCCC2)C1 | – | inconclusive [inhibitor, single point]
COC(=O)c1cccc(Nc2cc(C)nc(-c3ccccc3O)n2)c1 | – | inconclusive [inhibitor, single point]
Cc1cccc(Nc2nc(N)nc(CN3CCC(C(N)=O)CC3)n2)c1C | inactive: -2.93% | –
COc1ccc(NC(=O)c2noc(C(C)C)c2[N+](=O)[O-])cc1 | – | inconclusive [inhibitor, single point]
Cc1cccc(NC(=O)c2cc(Cl)ccc2[N+](=O)[O-])c1 | – | inconclusive [inhibitor, full curve, poor fit]
Cc1ncc([N+](=O)[O-])n1CC(=O)Nc1ccc2c(c1)OCO2 | inactive: -8.38% | –
CN(C)CCCN1c2ccccc2CCc2ccc(Cl)cc21 | – | active: 15.1 µM and active: 13.1 µM
COc1ccc(-n2c(C)cc(C(=O)CSc3nnc(-c4ccoc4C)n3C)c2C)cc1 | – | active: 9.28 µM
COc1cccc(NC(=O)Cc2ccccc2)c1 | inactive: 8.18% | –
COC(=O)c1cccc(NC(=O)CC2C(=O)NCCN2C(=O)c2ccc(F)cc2F)c1 (stereo not given) | – | inconclusive [inhibitor, full curve, poor fit]
CCOC(=O)Cc1csc(NC(=O)c2ccc(F)cc2)n1 | inactive: 1.71% | –
CCCCOc1ccc(C(=O)NCC2(c3ccc(OC)cc3)CCOCC2)cc1 | inactive: -19.8% | –
CCN(C(=O)CSc1nnc(-c2cccs2)n1N)c1c(N)n(Cc2ccccc2)c(=O)[nH]c1=O | – | inconclusive [inhibitor, partial curve, poor fit]
C=CCn1c(SCc2cc(=O)n3ccsc3n2)nc2scc(C3CC3)c2c1=O | – | inconclusive [inhibitor, partial curve, poor fit]
CCC(CC)c1nnc(NC(=O)Cc2ccccc2[N+](=O)[O-])s1 | – | inconclusive [inhibitor, single point]

SMILES | activity change, negative = inhibition | Potency
CCOc1ccc(N(CC(=O)Nc2cccnc2)S(=O)(=O)c2ccc(C)cc2)cc1 | – | active: 13.1 µM
CSc1ccc(CN(C)CC(=O)Nc2ccccc2C(=O)NC2CC2)cc1 | – | inconclusive [inhibitor, single point]
COc1ccc(S(=O)(=O)N2CCC3(CC2)OCCN3S(=O)(=O)c2ccc(OC)cc2)cc1 | – | inconclusive [inhibitor, single point]
Cc1cc(C(=O)Nc2cccc(S(=O)(=O)N3CCCCC3)c2)c2ccccc2n1 | – | inconclusive [inhibitor, partial curve, poor fit]
O=C(c1ccccc1)c1ccc2nc(-c3ccc(NC(=O)c4ccccc4F)cc3)[nH]c2c1 | – | inconclusive [inhibitor, full curve]
CC(OC(=O)C1CCN(S(=O)(=O)c2ccccc2C(F)(F)F)CC1)C(=O)N(C)Cc1ccccc1 (stereo not given) | – | inconclusive [inhibitor, partial curve]
COc1cc(OC)cc(C(=O)Nc2nc(CC(=O)NC(C)c3ccccc3)cs2)c1 (stereo not given) | – | inconclusive [inhibitor, single point]
O=C(Nc1ccc(N2CCOCC2)cc1N1CCOCC1)c1ncoc1-c1cccc(F)c1 | – | active: 11.7 µM
O=C(COC(=O)c1cnccn1)Nc1ccc(Cl)cn1 | inactive: 24.8% | –
CCC1(c2ccc(F)cc2)NC(=O)N(CC(=O)Nc2cc(S(=O)(=O)N(C)C)ccc2Cl)C1=O (stereo not given) | – | inconclusive [inhibitor, partial curve]
NC(=O)c1nnsc1Sc1c(C(N)=O)nnn1-c1cccc(N)c1 | – | inconclusive [inhibitor, single point]
Cc1nc2nc(C)c(CCC(=O)Nc3ccc4c(c3)OCO4)c(C)n2n1 | inactive: -6.58% | –
Cc1cccc(OCC(=O)Nc2ccc3c(c2)OCO3)c1C | inactive: 7.94% | –
O=C(CN1CCN(C/C=C/c2ccccc2)CC1)Nc1ccc(F)cc1F | – | inconclusive [inhibitor, single point]
O=C(Nc1ccc(Cl)c(S(=O)(=O)N2CCOCC2)c1)c1ccc2c(c1)OCCO2 | – | active: 13.1 µM
Cc1ccc(CN2CCSc3ccc(C(=O)NC4CCCC4)cc32)cc1 | – | inconclusive [inhibitor, single point]
CCc1ccc(C(=O)Cn2ncc(Cl)c(Cl)c2=O)cc1 | inactive: 1.95% | –
O=[N+]([O-])c1ccc(NCCN2CCOCC2)c([N+](=O)[O-])c1 | – | inconclusive [inhibitor, full curve, poor fit]
CN1C(=O)c2ccc(N3CCCC3)cc2C1=O | inactive: 81.5% | –
O=C(C1CCN(Cc2cccs2)CC1)N1CCN(Cc2ccc3c(c2)OCO3)CC1 | inactive: -0.867% | –
O=C(O)c1cc(NCc2ccccc2C(F)(F)F)ccc1N1CCOCC1 | inactive: 25% | –
Cc1ccc(C)c(-c2cc(C(=O)NCc3cccs3)c3ccccc3n2)c1 | – | inconclusive [inhibitor, partial curve, poor fit]
